Experimental data: paper PMC9911399, “Two distinct binding modes provide the RNA-binding protein RbFox with extraordinary sequence specificity”
Positions count from the first letter of the chain named. The list shows a part of the results.

T1: RBFOX1 RRM (Homo sapiens, UniProt Q9NWB1 109-208)
T1 sequence: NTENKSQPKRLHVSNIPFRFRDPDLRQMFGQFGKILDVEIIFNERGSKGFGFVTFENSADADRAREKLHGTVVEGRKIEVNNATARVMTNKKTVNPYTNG

B1: CCGUUAA (DNA:RNA)
RNA: GGGAGACCGGAAUUCAGAUUGUCCCCGUUAAUUAAAUCCCGUCGUAGCCACCA
DNA 1: CAATCTGAATTCCGGTCTCCC
DNA 2: TGGTGGCTACGACGGGATT
B2: ACGAAGG (DNA:RNA)
RNA: B1 RNA with C25A, U28A, U29A, A30G, A31G
DNA 1: CAATCTGAATTCCGGTCTCCC
DNA 2: TGGTGGCTACGACGGGATT
B3: AUCCGUA (DNA:RNA)
RNA: B1 RNA with C25A, C26U, G27C, U28C, U29G, A30U
DNA 1: CAATCTGAATTCCGGTCTCCC
DNA 2: TGGTGGCTACGACGGGATT
B4: CAAUAGC (DNA:RNA)
RNA: B1 RNA with C26A, G27A, U29A, A30G, A31C
DNA 1: CAATCTGAATTCCGGTCTCCC
DNA 2: TGGTGGCTACGACGGGATT
B5: CCCCUGG (DNA:RNA)
RNA: B1 RNA with G27C, U28C, A30G, A31G
DNA 1: CAATCTGAATTCCGGTCTCCC
DNA 2: TGGTGGCTACGACGGGATT
B6: AUGCGGA (DNA:RNA)
RNA: B1 RNA with C25A, C26U, U28C, U29G, A30G
DNA 1: CAATCTGAATTCCGGTCTCCC
DNA 2: TGGTGGCTACGACGGGATT
B7: CCACCGG (DNA:RNA)
RNA: B1 RNA with G27A, U28C, U29C, A30G, A31G
DNA 1: CAATCTGAATTCCGGTCTCCC
DNA 2: TGGTGGCTACGACGGGATT
B8: CGAAUAG (DNA:RNA)
RNA: B1 RNA with C26G, G27A, U28A, A31G
DNA 1: CAATCTGAATTCCGGTCTCCC
DNA 2: TGGTGGCTACGACGGGATT
B9: GAUCAAA (DNA:RNA)
RNA: B1 RNA with C25G, C26A, G27U, U28C, U29A
DNA 1: CAATCTGAATTCCGGTCTCCC
DNA 2: TGGTGGCTACGACGGGATT
B10: GGUUUUA (DNA:RNA)
RNA: B1 RNA with C25G, C26G, G27U, A30U
DNA 1: CAATCTGAATTCCGGTCTCCC
DNA 2: TGGTGGCTACGACGGGATT
B11: AUGUCUC (DNA:RNA)
RNA: B1 RNA with C25A, C26U, U29C, A30U, A31C
DNA 1: CAATCTGAATTCCGGTCTCCC
DNA 2: TGGTGGCTACGACGGGATT
B12: CAGGACU (DNA:RNA)
RNA: B1 RNA with C26A, U28G, U29A, A30C, A31U
DNA 1: CAATCTGAATTCCGGTCTCCC
DNA 2: TGGTGGCTACGACGGGATT
B13: GAUAGUU (DNA:RNA)
RNA: GGGAGACCGGAAUUCAGAUUGUCCGAUAGUUUUAAAUCCCGUCGUAGCCACCA
DNA 1: CAATCTGAATTCCGGTCTCCC
DNA 2: TGGTGGCTACGACGGGATT
B14: GCUUACU (DNA:RNA)
RNA: B13 RNA with A26C, A28U, G29A, U30C
DNA 1: CAATCTGAATTCCGGTCTCCC
DNA 2: TGGTGGCTACGACGGGATT
B15: CAUCCAC (DNA:RNA)
RNA: B1 RNA with C26A, G27U, U28C, U29C, A31C
DNA 1: CAATCTGAATTCCGGTCTCCC
DNA 2: TGGTGGCTACGACGGGATT
B16: AAAGCGU (DNA:RNA)
RNA: B13 RNA with G25A, U27A, A28G, G29C, U30G
DNA 1: CAATCTGAATTCCGGTCTCCC
DNA 2: TGGTGGCTACGACGGGATT
B17: AGUGAGA (DNA:RNA)
RNA: B1 RNA with C25A, C26G, G27U, U28G, U29A, A30G
DNA 1: CAATCTGAATTCCGGTCTCCC
DNA 2: TGGTGGCTACGACGGGATT
B18: UUCUAGG (DNA:RNA)
RNA: B1 RNA with C25U, C26U, G27C, U29A, A30G, A31G
DNA 1: CAATCTGAATTCCGGTCTCCC
DNA 2: TGGTGGCTACGACGGGATT
B19: CUGCUGU (DNA:RNA)
RNA: B1 RNA with C26U, U28C, A30G, A31U
DNA 1: CAATCTGAATTCCGGTCTCCC
DNA 2: TGGTGGCTACGACGGGATT
B20: CAAACAA (DNA:RNA)
RNA: B1 RNA with C26A, G27A, U28A, U29C
DNA 1: CAATCTGAATTCCGGTCTCCC
DNA 2: TGGTGGCTACGACGGGATT
B21: AUCACUA (DNA:RNA)
RNA: B13 RNA with G25A, A26U, U27C, G29C, U31A
DNA 1: CAATCTGAATTCCGGTCTCCC
DNA 2: TGGTGGCTACGACGGGATT
B22: CCGGACC (DNA:RNA)
RNA: B1 RNA with U28G, U29A, A30C, A31C
DNA 1: CAATCTGAATTCCGGTCTCCC
DNA 2: TGGTGGCTACGACGGGATT
B23: ACCGAUC (DNA:RNA)
RNA: B1 RNA with C25A, G27C, U28G, U29A, A30U, A31C
DNA 1: CAATCTGAATTCCGGTCTCCC
DNA 2: TGGTGGCTACGACGGGATT
B24: AAGCGCG (DNA:RNA)
RNA: B13 RNA with G25A, U27G, A28C, U30C, U31G
DNA 1: CAATCTGAATTCCGGTCTCCC
DNA 2: TGGTGGCTACGACGGGATT
B25: CCGUGCU (DNA:RNA)
RNA: B1 RNA with U29G, A30C, A31U
DNA 1: CAATCTGAATTCCGGTCTCCC
DNA 2: TGGTGGCTACGACGGGATT
B26: AACGCGC (DNA:RNA)
RNA: B13 RNA with G25A, U27C, A28G, G29C, U30G, U31C
DNA 1: CAATCTGAATTCCGGTCTCCC
DNA 2: TGGTGGCTACGACGGGATT
B27: UCGAAUG (DNA:RNA)
RNA: B1 RNA with C25U, U28A, U29A, A30U, A31G
DNA 1: CAATCTGAATTCCGGTCTCCC
DNA 2: TGGTGGCTACGACGGGATT
B28: UGAAAAA (DNA:RNA)
RNA: B1 RNA with C25U, C26G, G27A, U28A, U29A
DNA 1: CAATCTGAATTCCGGTCTCCC
DNA 2: TGGTGGCTACGACGGGATT
B29: GCUCGCG (DNA:RNA)
RNA: B13 RNA with A26C, A28C, U30C, U31G
DNA 1: CAATCTGAATTCCGGTCTCCC
DNA 2: TGGTGGCTACGACGGGATT
B30: UAAACUG (DNA:RNA)
RNA: B13 RNA with G25U, U27A, G29C, U31G
DNA 1: CAATCTGAATTCCGGTCTCCC
DNA 2: TGGTGGCTACGACGGGATT
B31: GAGUGGU (DNA:RNA)
RNA: B13 RNA with U27G, A28U, U30G
DNA 1: CAATCTGAATTCCGGTCTCCC
DNA 2: TGGTGGCTACGACGGGATT

These binders were tested against T1, RBFOX1 RRM (assay: EMSA; HiTS-Eq, 1 nM pool, 10 min; buffer printed only for the single-RNA assays: 10 mM Tris pH 7.5, 150 mM NaCl, 3.4 mM EDTA, 0.001% NP-40, 30 C). Details: tags: His6 N-terminal (pET28a); label: 5' 32P.
How it was run: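 A pool of RNA with 7 randomized nucleotides, 5′-radiolabelled and with DNA-annealed flanks, was equilibrated at 1 nM for 10 min in 50 µL with purified RbFox RRM, wild type or mutant, across increasing protein concentrations. Free RNA was separated by 8% native PAGE, excised, reverse-transcribed, barcoded by PCR and sequenced. Relative association constants were obtained from read-count changes of each RNA species versus the control reaction and normalised to the cognate motif.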

Row | Binder | binding signal
1 | B1 | 0.00125 KA relative to UGCAUGU
2 | B2 | 0.0119 KA relative to UGCAUGU
3 | B3 | 0.00367 KA relative to UGCAUGU
4 | B4 | 0.00204 KA relative to UGCAUGU
5 | B5 | 0.0109 KA relative to UGCAUGU
6 | B6 | 0.0106 KA relative to UGCAUGU
7 | B7 | 0.000243 KA relative to UGCAUGU
8 | B8 | 0.00672 KA relative to UGCAUGU
9 | B9 | 0.00435 KA relative to UGCAUGU
10 | B10 | 0.00817 KA relative to UGCAUGU
11 | B11 | 0.0135 KA relative to UGCAUGU
12 | B12 | 0.00514 KA relative to UGCAUGU
13 | B13 | 0.0125 KA relative to UGCAUGU
14 | B14 | 0.00884 KA relative to UGCAUGU
15 | B15 | 0.00104 KA relative to UGCAUGU
16 | B16 | 0.00568 KA relative to UGCAUGU

Row | Binder | binding signal
17 | B17 | 0.00921 KA relative to UGCAUGU
18 | B18 | 0.00585 KA relative to UGCAUGU
19 | B19 | 0.0232 KA relative to UGCAUGU
20 | B20 | 0.00107 KA relative to UGCAUGU
21 | B21 | 0.00157 KA relative to UGCAUGU
22 | B22 | 0.0158 KA relative to UGCAUGU
23 | B23 | 0.00288 KA relative to UGCAUGU
24 | B24 | 0.0111 KA relative to UGCAUGU
25 | B25 | 0.0119 KA relative to UGCAUGU
26 | B26 | 0.00997 KA relative to UGCAUGU
27 | B27 | 0.0323 KA relative to UGCAUGU
28 | B28 | 0.00801 KA relative to UGCAUGU
29 | B29 | 0.0177 KA relative to UGCAUGU
30 | B30 | 0.0089 KA relative to UGCAUGU
31 | B31 | 0.0185 KA relative to UGCAUGU
